In patent US20180030098A1 (NAVIGO PROTEINS, published 2018):
Where a chain is given by its changes, count along the chain named. Names may count otherwise.

Legend:
[1] = biological target: T1, Recombinant human EGFR-Fc Chimera (R&D Systems, catalog no. 344-ER-050) (human, UniProt P00533 25-645); test: SPR (Biacore) on immobilised hEGFR-Fc
T1 construct: range 1-645; Bought reagent; Immobilised on the CM5 chip for SPR; also called hEGFR-Fc; not shown: Fc region of human IgG1, fused at the C-terminus

[2] = biological target: T1, Recombinant human EGFR-Fc Chimera (R&D …); test: SPR (Biacore 3000), immobilised EGFR-Fc
[3] = biological target: T2, human EGFR expressed on cells (human, UniProt P00533 25-1210); test: immunocytochemistry on A431 cells
T2 construct: whole, on cells; One entry for EGFR on cells: exogenous in CHO-K1, endogenous in A549, A431 and MDA-MB-231; The cell is named under assay in each row; also called cellular EGFR; surface-exposed EGFR

[4] = biological target: T1, Recombinant human EGFR-Fc Chimera (R&D …); test: SPR (Biacore) on immobilised hEGFR-Fc; remark: listed apart in the source

B1: Affilin 139791 (designed binder)
chain: MQIFVKTLTPWRGYDGKTITLEVEPSDTIENVKAKIQDKEGIPPDQQRLIWAGKQLEDGRTLSDYNIRRVDVLHLVLRLRAA
notes: Ubiquitin mutein, cartridge (PWRGYD)RRVDV; Strep-tag detection
Kd [1]: 175 nM
Kd [2]: 256 nM
koff [2]: 0.00102 s⁻¹
kon [2]: 3980 M⁻¹ s⁻¹

B2: Affilin 139820 (designed binder)
chain: B1 chain with R12Y, I29T, R68T, R69T, V72I
binding result [3]: binds

B3: 139880 (designed binder)
Affilin of two ubiquitin moieties: MQIFVHTWTGKTITLEVEPSDTIENVKAKIQDKEGIPPDQQRLIWAGKQLEDGRTLSDYNIRHPDILHLVLRLRAAGIGMQIFVRTPTGKTITLEVEPSDTIENVKAKIQDKEGIPPDQQRLIWAGKQLEDGRTLSDYNIHRSAMLHLVLRLRAA
notes: also called Affilin 139880
Kd [4]: 574 nM

B4: 139907 (designed binder)
Affilin of two ubiquitin moieties: B3 Affilin of two ubiquitin moieties with R62S, R85V, P87T, H141A, R142N, S143R, M145R
notes: also called Affilin 139907
Kd [4]: 473 nM

B5: 139959 (designed binder)
Affilin of two ubiquitin moieties: B3 Affilin of two ubiquitin moieties with W8M, H63N, R85V, P87F, H141T, R142Q, S143W, A144T, M145P
notes: also called Affilin 139959
Kd [1]: 566 nM

B6: 139961 (designed binder)
Affilin of two ubiquitin moieties: B3 Affilin of two ubiquitin moieties with W8T, R85S, P87F, H141V, R142A, S143H, A144N
notes: also called Affilin 139961
Kd [4]: 450 nM

B7: 140077 (designed binder)
Affilin of two ubiquitin moieties: B3 Affilin of two ubiquitin moieties with W8Y, R85H, P87N, H141G, R142A, S143R, A144T, M145S
notes: also called Affilin 140077
Kd [4]: 660 nM

B8: 140094 (designed binder)
Affilin of two ubiquitin moieties: B3 Affilin of two ubiquitin moieties with W8Q, R62T, H63S, R85I, P87S, H141P, S143A, M145S
notes: also called Affilin 140094
Kd [1]: 650 nM

B9: 139923 (designed binder)
Affilin of two ubiquitin moieties: MQISLYTPTGKTLTLELEPSDTIENVKAKIQDKEGIPPDQQRLIWAGKQLEDGRTLSDYNIRHPDILHLVLRLRAAGIGMQIFVDTYTGKTITLEVEPSDTIENVKAKIQDKEGIPPDQQRLIWAGKQLEDGRTLSDYNIGYEPALHLLLRLRAA
notes: additional exchanges printed: F4S,V5L,I13L,V17L,2. moiety: V70L; also called Affilin 139923
Kd [4]: 532 nM

B10: Affilin 139989 (designed binder)
chain: MQIFVVTMTGKTITLEVEPSDTIENVKAKIQDKEGIPPDQQRLIWAGKQLEDGRTLSDYNIEWYTNLHLVLRLRAAGIGMQIFVWTTTGKTITLEVEPSDTIENVKAKIQDKEGIPPDQQRLIWAGKQLEDGRTLSDYNILHGQWLHLVLRLRAA
notes: Affilin of two ubiquitin moieties, without PDI motif
Kd [4]: 61 nM

B11: Affilin 138840 (designed binder)
chain: MVIWVHTLTGKTITLEVEPSDTIENVKAKIQDKEGIPPDQQRLIWAGKQLEDGRTLSDYNINFKLSLHLVLRLRAAGIGMQIFVHTQTGKTITLEVEPSDTIENVKAKIQDKEGIPPDQQRLIWAGKQLEDGRTLSDYNIGWQAPLHLVLRLRAA
notes: as for B10
Kd [4]: 5700 nM
